# The supplement of paper PMC12217912
# The other results are listed elsewhere or left out. Sequences were assembled here from the parent chain. Inactive controls read about 0.05.
# B1: TEV protease; numbered along this chain (parent)
# chain: MGESLFKGPRDYNPISSSICHLTNESDGHTTSLYGIGFGPFIITNKHLFRRNNGTLVVQSLHGVFKVKDTTTLQQHLVDGRDMIIIRMPKDFPPFPQKLKFREPQREERICLVTTNFQTKSMSSMVSDTSCTFPSGDGIFWKHWIQTKDGQCGSPLVSTRDGFIVGIHSASNFTNTNNYFTSVPKNFMELLTNQEAQQWVSGWRLNADSVLWGGHKVFMVKPEEPFQPVKEATQL
# Variants of: B1
# Assay: raw area under fraction-flipped curve 0-4 h after induction (AUC4h, not background-subtracted), DNA-recorder readout of cleavage of the substrate (dimensionless); higher = more cleavage of the substrate by the protease variant
# Conditions: temperature: 34 °C; time window: 0-4 h after rhamnose induction
# Experimental: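 In vivo DNA recorder in E. coli TOP10(DE3) ΔrhaA at 34 °C. Each TEVp single-site mutant (parent TEVp 0) is paired with a single-site variant of the 7-mer TEVs (canonical ENLYFQ|S). The substrate sits between flexible linkers in a Bxb1-sfGFP-TEVs-SsrA fusion, so cleavage stabilises Bxb1 and speeds flipping of a recombination array, read by NGS. The value is the raw area under the fraction-flipped curve over 0-4 h after rhamnose induction (AUC4h), with ≥20 reads per time point. It is not background-subtracted; inactive controls average about 0.047.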
# 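Note: Bxb1 expression induced with 0.2% (w/v) L-rhamnose at OD600 near 0.5, cultures sampled hourly, flipped fraction per protease–substrate barcode pair counted by paired-end Illumina sequencing.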
Variant,area with substrate EALYFQS,area with substrate ECLYFQS,area with substrate EGLYFQS,area with substrate EILYFQS,area with substrate EKLYFQS,area with substrate ELLYFQS,area with substrate EQLYFQS,area with substrate ETLYFQS,area with substrate EDLYFQS,area with substrate EELYFQS,area with substrate EMLYFQS,area with substrate EPLYFQS,area with substrate ESLYFQS,area with substrate EVLYFQS,area with substrate EWLYFQS,area with substrate EFLYFQS,area with substrate EHLYFQS,area with substrate ERLYFQS,area with substrate EYLYFQS
V217F,0.0795,0.0883,0.0759,0.0429,0.0976,0.104,0.0481,0.0658,,,,,,,,,,,
V217T,0.122,,,0.0807,0.0691,0.0964,,,0.0824,0.0929,0.0751,0.0409,0.0706,0.0626,0.0657,,,,
F218M,0.174,,,0.0871,,,0.0793,,0.146,,,,0.101,,,,,,
F218W,0.111,,,0.0894,0.0736,,,0.0979,,,,,0.0938,,0.104,,,,
K221G,0.0983,,,0.0371,0.101,0.0891,0.117,0.125,,0.103,0.0733,0.0964,0.0592,0.0858,,0.0695,0.0922,,
P222K,0.0724,0.0895,,0.074,,,0.101,,,0.125,0.0966,,0.103,,,,,0.0915,
E223V,0.1,,,0.0998,,,,,0.138,,0.0863,0.112,0.0949,0.1,0.0811,0.122,0.0676,,
E223W,0.097,,0.0742,0.114,0.117,,,,,,0.135,,0.0884,0.0804,0.0928,,0.0783,0.0877,
F226R,0.111,,,,0.111,,0.0769,0.0892,0.154,,,,0.0925,0.0975,,,0.0943,,
F226T,0.114,,,,,,,0.166,0.173,,0.141,,,,0.0918,,,,
P228K,0.127,,0.143,0.111,,,0.111,,,,,0.121,0.0912,0.105,,,,0.11,0.113
P228L,0.146,,,0.0857,0.104,,0.09,,0.0328,0.0651,,,0.112,,,,0.151,0.105,0.0832
P228M,0.101,0.105,0.0689,0.102,0.111,0.0845,,,,,0.126,,0.109,0.0789,0.0752,,0.0886,0.0882,
V229A,0.0824,,,0.0804,,0.0884,0.221,,0.0565,0.115,0.131,,0.108,0.0874,0.0906,0.109,,0.0933,
K230Y,0.105,,0.0949,,,,0.0976,,,,,,0.0879,,,,0.0981,,0.103
Q234A,0.12,0.109,,0.084,0.0986,0.0781,0.117,,,,0.132,,0.084,,,,0.151,,0.0829
L235K,0.163,0.136,,0.108,,0.148,0.134,0.124,,0.144,,,0.119,0.106,0.0886,,,,0.0766

Variant,area with substrate EALYFQS,area with substrate ECLYFQS,area with substrate EGLYFQS,area with substrate EILYFQS,area with substrate EKLYFQS,area with substrate ELLYFQS,area with substrate EQLYFQS,area with substrate ETLYFQS,area with substrate EDLYFQS,area with substrate EELYFQS,area with substrate EMLYFQS,area with substrate EPLYFQS,area with substrate ESLYFQS,area with substrate EVLYFQS,area with substrate EWLYFQS,area with substrate EFLYFQS,area with substrate EHLYFQS,area with substrate ERLYFQS,area with substrate EYLYFQS
G2R,,0.122,,0.0961,0.153,0.156,0.177,,0.158,,0.14,,,0.119,,,,0.146,0.147
E3L,,0.0443,0.0551,0.0728,0.048,,0.072,0.0526,,0.0734,,0.065,0.0674,,,0.0941,0.0502,0.0739,
L5A,,0.117,,,,,0.165,,0.157,,,,,0.0921,0.113,0.0863,0.116,0.101,0.118
L5V,,0.148,0.132,,0.0987,0.11,0.12,,,0.137,0.132,0.124,,0.149,0.0932,,,0.102,0.122
L5W,,0.115,0.125,0.0978,0.0964,0.0884,0.137,0.102,,0.172,,0.155,0.118,0.112,0.103,0.186,,0.121,
F6D,,0.0794,0.0895,0.0893,0.0933,,0.126,0.0777,0.118,0.118,,0.0866,0.0946,0.0693,,,0.0975,,
F6I,,0.111,,,0.118,0.13,,,,0.134,0.129,,0.1,,,,,,
F6S,,0.103,,0.101,0.103,,0.102,,0.116,,0.116,,0.0931,0.0927,,,,,0.124
F6W,,0.108,,0.0919,0.0864,0.0789,,,,0.113,0.112,0.0967,0.119,0.0713,0.105,,0.0581,0.122,
K7G,,0.118,0.102,0.0786,0.102,0.0738,,,0.116,,0.0923,0.156,0.104,0.0862,0.104,0.0945,0.104,0.115,
P9I,,0.128,,0.101,0.114,0.0732,0.156,0.132,0.129,0.132,,0.126,0.0527,,,,,0.132,
P14L,,0.107,,0.0965,0.123,,0.125,0.146,0.127,0.145,0.112,,0.113,0.104,0.125,0.102,0.102,0.105,
S17I,,0.0933,0.092,0.0633,,0.101,,0.0859,0.117,,,0.0995,0.0848,,,,0.107,,0.068
S17T,,0.131,,0.106,,0.0944,0.134,0.13,0.162,,,0.128,0.115,,0.123,0.11,0.0959,0.0993,0.0987
T23D,,0.166,,,,0.0791,0.103,0.098,0.119,0.0898,0.121,0.114,0.0955,,0.083,,,0.105,0.131
E25F,,0.0975,0.114,0.0861,0.0989,0.0673,0.107,0.106,0.12,0.128,,,0.147,0.0885,0.0935,,,0.111,
